According to US9126931B2 (priority 2009, dated 2015):
Counter-ions that a name gives are not always drawn.

test system: Human lymphoma cell line KARPAS-299; test: cells; conditions: KARPAS-299, 96 h, read-out: Inhibitory activity on Karpas-299 cell growth IC50

SMILES	IC50
CC1(C)c2cc(N3CCC(N4CCCC4)CC3)ccc2C(=O)c2c1[nH]c1ncccc21 [Compound G6, 10,10-Dimethyl-8-(4-pyrrolidin-1-yl-piperidin-1-yl)-10,11-dihydro-1,11-diaza-benzo[b]fluoren-5-one]	168 nM
CC1(C)c2cc(OC[C@H](O)CO)ccc2C(=O)c2c1[nH]c1c(C(F)(F)F)c(C#N)ccc21 [Compound U8-5-2, 8-((R)-2,3-Dihydroxy-propoxy)-6,6-dimethyl-11-oxo-4-trifluoromethyl-6,11-dihydro-5H-benzo[b]carbazole-3-carbonitrile]	357 nM
CC1(C)c2cc(N3CCNCC3)c(C3CC3)cc2C(=O)c2c1[nH]c1cc(C#N)ccc21 [Compound F5-15-2, 9-Cyclopropyl-6,6-dimethyl-11-oxo-8-piperazin-1-yl-6,11-dihydro-5H-benzo[b]carbazole-3-carbonitrile]	9.8 nM
CC1(C)c2cc(OCC3CCNCC3)ccc2C(=O)c2c1[nH]c1cc(Br)ccc21 [Compound T14-2, 3-Bromo-6,6-dimethyl-8-(piperidin-4-ylmethoxy)-5,6-dihydro-benzo[b]carbazol-11-one hydrochloric acid salt]	632 nM
CC1(C)c2cc(N3CCC(C)(N4CCOCC4)CC3)ncc2C(=O)c2c1[nH]c1cc(C(N)=O)ccc21 [AZ7-6, 5,5-Dimethyl-3-(4-methyl-4-morpholine-4-yl-piperidine-1-yl)-11-oxo-6,11-dihydro-5H-pyrido[4,3-b]carbazole-8-carboxylic acid amide]	1130 nM
CC1(C)c2cc(N3CCN(C4CC4)CC3)c(-c3cccs3)cc2C(=O)c2c1[nH]c1cc(C#N)ccc21 [Compound F5-41, 8-(4-Cyclopropyl-piperazin-1-yl)-6,6-dimethyl-11-oxo-9-thiophene-2-yl-6,11-dihydro-5H-benzo[b]carbazole-3-carbonitrile]	149 nM
CCc1cc2c(cc1N1CCC(OCC3CC3)CC1)C(C)(C)c1[nH]c3cc(C#N)ccc3c1C2=O [PR9-24, 8-(4-Cyclopropylmethoxy-piperidine-1-yl)-9-ethyl-6,6-dimethyl-11-oxo-6,11-dihydro-5H-benzo[b]carbazole-3-carbonitrile]	67.9 nM
CCc1cc2c(cc1NCCN1CCOCC1)C(C)(C)c1[nH]c3cc(C#N)ccc3c1C2=O [PR9-20, 9-Ethyl-6,6-dimethyl-8-(2-morpholine-4-yl-ethylamino)-11-oxo-6,11-dihydro-5H-benzo[b]carbazole-3-carbonitrile]	18.8 nM
CCN(CC)CCOc1ccc2c(c1)C(C)(C)c1[nH]c3cc(N(C)Cc4ccccc4)ccc3c1C2=O [GT5-3, 3-(Benzyl-methyl-amino)-8-(2-diethylamine-ethoxy)-6,6-dimethyl-5,6-dihydro-benzo[b]carbazol-11-one]	1870 nM
CCc1cc2c(cc1N1CCC(O)(C#N)CC1)C(C)(C)c1[nH]c3cc(C#N)ccc3c1C2=O [PR11-20, 8-(4-Cyano-4-hydroxy-piperidine-1-yl)-9-ethyl-6,6-dimethyl-11-oxo-6,11-dihydro-5H-benzo[b]carbazole-3-carbonitrile]	20.3 nM
COc1cc2c(cc1S(=O)(=O)C(C)C)C(=O)c1c([nH]c3cc(C#N)ccc13)C2(C)C [Compound E5-3, 8-Methoxy-6,6-dimethyl-11-oxo-9-(propane-2-sulfonyl)-6,11-dihydro-5H-benzo[b]carbazole-3-carbonitrile]	190 nM
N#Cc1ccc2c3c([nH]c2c1)C1(CCOCC1)c1cc(OC2CCNCC2)ccc1C3=O [Compound N6-2, 11-Oxo-8-(piperidin-4-yloxy)-2′,3′,5,5′,6′,11-hexahydrospiro[benzo[b]carbazole-6,4′-pyran]-3-carbonitrile]	24.8 nM
CC1(C)c2cc(N3CCC(N4CCCCC4)CC3)ncc2C(=O)c2c1[nH]c1cc(C#N)ccc21 [AZ7-10, 3-[1,4′]Bipiperidinyl-1′-yl-5,5-dimethyl-11-oxo-6,11-dihydro-5H-pyrido[4,3-b]carbazole-8-carbonitrile]	5.77 nM
CC1(C)c2ccc(C3=CCNCC3)cc2C(=O)c2c1[nH]c1cc(C#N)ccc21 [Compound J7-10-2, 6,6-Dimethyl-11-oxo-9-(1,2,3,6-tetrahydro-pyridin-4-yl)-6,11-dihydro-5H-benzo[b]carbazole-3-carbonitrile]	30.3 nM
CCN1[C@H](C)CN(c2ccc3c(c2)C(C)(C)c2[nH]c4cc(C#N)ccc4c2C3=O)C[C@@H]1C [Compound B3-40, 8-((3R,5S)-4-Ethyl-3,5-dimethyl-piperazin-1-yl)-6,6-dimethyl-11-oxo-6,11-dihydro-5H-benzo[b]carbazole-3-carbonitrile]	22 nM
C#Cc1cc2c(cc1N1CCN(C3COC3)CC1)C(C)(C)c1[nH]c3cc(C#N)ccc3c1C2=O [Compound F5-16, 9-Ethynyl-6,6-dimethyl-8-(4-oxetan-3-yl-piperazin-1-yl)-11-oxo-6,11-dihydro-5H-benzo[b]carbazole-3-carbonitrile]	4.2 nM
CN(C)CCCOc1cccc2c1C(C)(C)c1[nH]c3cc(C#N)ccc3c1C2=O [Compound W4-4, 7-(3-Dimethylamino-propoxy)-6,6-dimethyl-11-oxo-6,11-dihydro-5H-benzo[b]carbazole-3-carbonitrile]	116 nM
CC1(C)c2cc(N3CCN(C4CC4)CC3)c(Br)cc2C(=O)c2c1[nH]c1cc(C#N)ccc21 [Compound F4-9, 9-Bromo-8-(4-cyclopropyl-piperazin-1-yl)-6,6-dimethyl-11-oxo-6,11-dihydro-5H-benzo[b]carbazole-3-carbonitrile]	65 nM
CC1(C)c2cc(N3CCN(S(C)(=O)=O)CC3)c(Br)cc2C(=O)c2c1[nH]c1cc(C#N)ccc21 [Compound F3-3, 9-Bromo-8-(4-methanesulfonyl-piperazin-1-yl)-6,6-dimethyl-11-oxo-6,11-dihydro-5H-benzo[b]carbazole-3-carbonitrile]	16.2 nM
CC1(C)c2cc(O)c(-c3ccc(O)cc3F)cc2C(=O)c2c1[nH]c1cc(Br)ccc21 [Compound T27-2, 3-Bromo-9-(2-fluoro-4-hydroxy-phenyl)-8-hydroxy-6,6-dimethyl-5,6-dihydro-benzo[b]carbazol-11-one]	997 nM
